Reference: PubChem BioAssay AID1508624 (National Center for Advancing Translational Sciences (NCATS), 2021)
Out of some 48,000 compounds screened, about 120 (0.25%) were called active. About 4% were inconclusive and are not listed. Calls come from the whole dose curve; as a rule, active = well fitted activation curve with a large enough effect; inconclusive = small, poorly fitted or top-dose-only effect, or another doubt; inactive = no such curve, though single readings can be large or run the other way. The list shows a part of the results.

assay: Primary qHTS for Identification of Small Molecule Activators of Huntingtin-Antisense Promoter Activity; details: HEK293 HTT-AS promoter firefly luciferase reporter, 24 h; series mostly up to 57.5 µM; activity change, positive = activation: at the top concentration; note: nearly all actives have a fitted effect of over 55% in size
How it was run: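 Luminescence was read after Dual-Glo reagent and a 10 min room-temperature incubation. Values were normalized to vehicle (0% activity) and zero RLU (-100% activity). Reporter HEK293 cells had been exposed to compounds (up to 57.5 uM final) for 24 h.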

Activity change, positive = activation, inactive:
CCN(CC)S(=O)(=O)c1nnc(NC(=O)COc2ccccc2Cl)s1 -14.5%
O=C(COc1ccccc1F)OCc1cc(=O)n2nc(-c3cccs3)sc2n1 0.926%
CCC(C(=O)N1CCN(c2ccccc2)CC1)n1nc(C)n2c(cc3sccc32)c1=O (stereo unspecified) -23.7%
COc1ccc(C(=O)NCc2nnc(SCC(=O)Nc3ccccc3)n2-c2ccc(F)cc2)cc1 -13.1%
CC(C)NCC(O)COc1cccc2[nH]ccc12 (stereo unspecified) -15.5%
CCOc1ccc(CCNC(=O)CN2C(=O)C(CC)Oc3ccccc32)cc1OCC (stereo unspecified) -19%
COc1ccc(NC(=O)c2c(NCc3ccc(C)o3)sc3c2CCC(C)C3)c(OC)c1 (stereo unspecified) -23.3%
COc1ccc(OC)c(NC(=O)CSc2ccnc(=O)[nH]2)c1 -16%
COc1ccccc1-c1cc(C(=O)Nc2sc3c(c2C#N)CCCC3)no1 -8.76%
Cn1c(=O)oc2cc(S(=O)(=O)CCC(=O)N3CCN(c4ccccc4)CC3)ccc21 6.51% [at 11.5 µM, percent change from vehicle, -100% = no light]
COc1ccccc1N1CCN(S(=O)(=O)c2c(C)sc3ncn(CC(=O)Nc4cccc(Cl)c4)c(=O)c23)CC1 5.46%
COC(=O)c1c(-c2ccc(Cl)cc2)noc1N1CCN(c2ccc(OC)cc2)CC1 -4.7%
COc1ccc(C2CC(c3c(O)n(C4CCCCC4)c(=O)[nH]c3=O)=Nc3ccccc3S2)cc1 (stereo unspecified) 12.1%
Cc1ccc2c(c1)NC(=O)C(CC(=O)Nc1cc(Cl)ccc1C)O2 (stereo unspecified) -4.96%
COc1ccc(-c2cnnn2-c2ccc(NC(=O)c3ccc(S(=O)(=O)N(C)C)cc3)cc2)cc1 -31.4%
COc1ccc(-c2cnnn2-c2ccc(NC(=O)c3c(F)cccc3F)cc2)cc1 -28.9%
CCOC(=O)c1cnc2cc(-c3ccc(Cl)cc3)nn2c1-c1ccccc1 0%
CC(C)Cn1c(=O)c2ccccc2n2c(CCC(=O)Nc3cccc(Cl)c3)nnc12 -0.442%
CC(=O)c1cc(-c2ccccc2)n(CC(=O)NC2CCCCC2)c1C -7.51%
CCOc1ccccc1/C=C/c1onc(C)c1S(=O)(=O)N1CCC(C(=O)N(CC)CC)CC1 -38.5%
OC(CCN1CCCC1)(c1ccccc1)C1CCCCC1 (stereo unspecified) -17%
O=C1Nc2c(c(=O)[nH]c(=O)n2-c2ccccc2)C1(NS(=O)(=O)c1ccc(Cl)cc1)C(F)(F)F (stereo unspecified) -7.41%
CCCOc1ccc(-c2nn(-c3ccccc3)cc2C2NC(=O)NC(C)=C2C(=O)OC(C)C)cc1 (stereo unspecified) -37.2%
Cc1ccc(NC(=O)Cn2c(=O)n(CCCCCC(=O)NCc3ccc(F)cc3)c(=O)c3sccc32)cc1C -6.84%
O=C(Cc1ccc(F)cc1)NC1CC(=O)N(c2ccccc2)C1 (stereo unspecified) -12.6%
CCOc1ccc(Cn2nnc3c(=O)[nH]c(C4CCN(C(=O)c5ccccc5)CC4)nc32)cc1 -23.6%
COC(=O)c1ccc(NC(C)=O)cc1OC -5.19%
CCC(CC)c1nn2c(=O)cc(COc3ccc(NC(=O)c4ccccc4Cl)cc3)nc2s1 -15.4%
Cc1ccccc1CNC(=O)C1CCN(c2nn3cc(-c4ccc(F)cc4)nc3s2)CC1 17%
CC1CCCCN1CCCNC(=O)Cn1ncc2c([nH]c3ccccc32)c1=O (stereo unspecified) -1.18%
Cc1cccc(CNS(=O)(=O)c2ccc3[nH]c(=O)ccc3c2)c1 -12.6%
COc1ccc(C)cc1NC(=O)c1cc(S(=O)(=O)NC2CCCCCC2)ccc1F -41.8%
COc1ccc(Cn2c(=O)[nH]c3cc(C(=O)N4CCN(c5cc(C)ccc5C)CC4)ccc3c2=O)cc1 -30%
CC(C)Oc1ccc(CNC(=O)CCCn2c(=O)c3cccn3c3ccccc32)cc1 -31.9%
COc1ccc(-c2cc(C(F)(F)F)c(C#N)c(SCC(=O)Nc3ccc(F)cc3)n2)cc1 -15.6%
Cc1ccc(S(=O)(=O)N2CCCc3cc(NS(=O)(=O)c4ccc(F)c(C)c4)ccc32)cc1 -45.2%
Cc1ccc(NCc2cccn2-c2nnc(N3CCC(C(=O)NC(C)C)CC3)s2)cc1 -37.8%
COc1ccc(NC(=O)Cn2c(=O)oc3cc(S(=O)(=O)NC4CCCC4)ccc32)cc1OC -24.1%
CCCNC(=O)c1ccc2c(c1)ncn2-c1ccc(C)cc1C -9.94%
Cn1c(N2CCCCS2(=O)=O)nc(C(=O)NCc2ccc(F)cc2)c(O)c1=O 5.81%
CCOC(=O)c1c(NC(=O)CS(=O)(=O)c2ccc(C)cc2)sc2c1CCCCC2 -23.6%
CCc1ccc(CNC(=O)c2ccc3c(c2)N=C(C)c2cc(C)ccc2S3)cc1 -27.9%
CC(CN(C)C)CN1c2ccccc2CCc2ccccc21 (stereo unspecified) -15.2%
CCCC(O)C(CC)CO (stereo unspecified) 0.245%
CN(C)CCNC(=O)c1ccc(-n2c(-c3ccccc3)cc3c2CCCC3)cc1 -4.12%
COP(=O)(OC)OC(c1ccc(Cl)cc1)P(=O)(OC)OC (stereo unspecified) -9.55%
Cc1cc(C)cc(-n2nnc(-c3nc(-c4ccc5c(c4)OCO5)no3)c2C)c1 -2.04%
Cc1ccc(S(=O)(=O)C(CNC(=O)C(=O)NCc2ccc(Cl)cc2)c2cccs2)cc1 (stereo unspecified) -40.6%
COc1cc2c(=O)n(CCC(=O)NCC3CCCO3)c(=O)n(CC(=O)Nc3ccc(C)cc3)c2cc1OC (stereo unspecified) 12.6%
CCC(=O)N1c2ccc(S(=O)(=O)N3CCN(c4ccccc4)CC3)cc2CC1C (stereo unspecified) -7.59%
CC(=O)c1ccc(NC(=O)c2cn3c4c(ccc(Cl)c4c2=O)OC(C)C3)cc1 (stereo unspecified) -7.22%
Cc1ccc(C(=O)NCCn2c(C)cc3ccccc32)cc1C -41.3%
Nc1ccc2c(c1)CN1C(=O)c3ccccc3C1=N2 -51.8% [at 25.1 µM, percent change from vehicle, -100% = no light]
CC(Oc1ccc(F)cc1)C(=O)NCC1(N(C)C)CCCCC1 (stereo unspecified) -3.28%
Cc1ccc(S(=O)(=O)c2cn(CC(=O)Nc3ccc(C)c(Cl)c3)c3ccc(C)cc3c2=O)cc1 -6.47%
Cc1c(NC(=O)c2ccc(OC(C)C)cc2)cccc1-c1nc2ncccc2o1 -1.97%
COc1cccc(C(=O)NCCSc2c(-c3ccc(F)cc3)[nH]c3ccccc23)c1OC -55.3%
O=C1CN(C(=O)c2ccc(S(=O)(=O)N3CCCCC3)cc2)C(c2ccc(F)cc2)c2cc(F)ccc2N1 (stereo unspecified) -17.3%
Cc1ccc(CNC(=O)C2CCCN(S(=O)(=O)c3ccc4c(c3)oc(=O)n4C)C2)cc1 (stereo unspecified) -13.9%
CCc1ccc(CNC(=O)CCSCc2ccccc2F)cc1 -2.78%
Cc1cccc(NS(=O)(=O)c2ccc3[nH]c(=O)ccc3c2)c1C -13.3%
